Results on 43 compounds are retold here after ChEMBL document CHEMBL4888484, “Replenishing the malaria drug discovery pipeline: Screening and hit evaluation of the MMV Hit Generation Library 1 (HGL1) against asexual blood stage Plasmodium falciparum ,using a nano luciferase reporter read-out” (2022).

The whole screen tested about 150,000 compounds, of which about 540 (0.36%) showed an effect of 50% or more. The list shows a part of the results.

The assay has as its system Plasmodium falciparum. As to the kind of experiment: Primary screen in NF54 nanoGlo assay, in single point, at 2uM, 72h; a lower Z score goes with more inhibition. The class given is functional, Erythrocyte. As to conditions: timepoint 72 hour.

For orientation: % Inhibition means the change of the read-out against control, counted positive when it falls. With `Cc1ccc(-c2nnc(-c3ccc(F)cc3)nc2NC(C)C)cc1`, the “% Inhibition” value is -19% and the Z score is 2.21.

As to `O=C(NCc1ccco1)NCc1ccco1`, the “% Inhibition” value was -4% and the Z score worked out at 0.8.

In the case of `O=C(CCc1cccc(Cl)c1)N1CC[C@H](c2ccc3c(c2)OCO3)C1`, the “% Inhibition” value is listed as 4% and the Z score is recorded as -0.57.

With `Fc1ccc(-c2ccc(CNC3CC3)o2)cc1Cl`, the “% Inhibition” value is listed as -11% and the Z score came to 0.94.

In the case of `O=C(c1cc(F)ccc1Cl)N1CCC[C@@]2(CCNC2)C1`, the “% Inhibition” value was -15% and the Z score was 1.36.

For `CN(C)C(=O)CN1CCc2cccc(NC(=O)OC(C)(C)C)c21`, the “% Inhibition” value came to 36% and the Z score is -5.25.

For the compound `CCn1nccc1-c1cccc(-c2noc(-c3cc(Cl)ccc3F)n2)c1`, the “% Inhibition” value is -8% and the Z score was 0.95.

For `O=C(CNCCc1ccc(Cl)cc1Cl)NCc1ccco1`, the “% Inhibition” value is given as -13% and the Z score is reported as 1.12.

In the case of `CC(C)Oc1ccc(-c2nc(N(C)C3CCCCC3)c3ccccc3n2)cc1`, the “% Inhibition” value was determined as 2% and the Z score is recorded as -0.18.

As to `O=C(c1ccccc1-n1ccnn1)N1CCC[C@H](OCC(F)(F)F)C1`, the “% Inhibition” value was -15% and the Z score is 2.94.

As for `CCCCS(=O)(=O)N[C@H]1CCN(c2nc(C)cc(=O)[nH]2)C1`, the “% Inhibition” value is recorded as -26% and the Z score is 3.01.

Turning to `CCO[C@H]1CCN(C(=O)c2coc3c2C(=O)NCC(C)(C)C3)C1`, the “% Inhibition” value is listed as 0% and the Z score is listed as -0.02.

As to `Cn1c(CCNC(=O)[C@@H]2COCCN2)nc2ccc(F)cc21`, the “% Inhibition” value is 1% and the Z score was -0.19.

As to `CCc1c(C)sc(NC(=O)Cc2c(C)nn(C)c2C)c1C#N`, the “% Inhibition” value is reported as -2% and the Z score is recorded as 0.37.

Turning to `CC1=C(c2ccc(C(C)C)cc2)S(=O)(=O)N=C1N1CCN(C2CCCCC2)CC1`, the “% Inhibition” value is on record as -15% and the Z score was found to be 2.16.

For `Cc1cccnc1CCNC(=O)N1CC[C@H](N2CCCCC2)C1`, the “% Inhibition” value is reported as -15% and the Z score worked out at 1.43.

Consider `O=C1CCCN1C[C@@H](O)CN1CCCc2n[nH]cc21`, for which the “% Inhibition” value is -3% and the Z score stood at 0.36.

Take `COCCC(=O)Nc1c(C(=O)OC)n(CCc2c[nH]c3ccccc23)c2ncc(N[C@@H](C)COC)cc12`: the “% Inhibition” value was -10% and the Z score was 1.28.

As for `CS(=O)(=O)c1ccc(CNC(=O)N2CC[C@H](C3CCCC3)C2)s1`, the “% Inhibition” value is listed as -17% and the Z score is reported as 1.7.

For `Fc1ccc(CCN2CCC[C@H](n3ccnn3)C2)cc1F`, the “% Inhibition” value is on record as -1% and the Z score turned out to be 0.14.

With `NC(=O)CNc1cccc(Br)c1`, the “% Inhibition” value stood at 13% and the Z score is listed as -1.55.

Turning to `N#Cc1ncn(CC(=O)c2cnc(N3CCCCC3)s2)c1C#N`, the “% Inhibition” value is -6% and the Z score was determined as 0.66.

For `COc1ccc(-c2cc(-c3ccco3)cc(-c3ccc4c(c3)NC(=O)CO4)n2)cc1`, the “% Inhibition” value is listed as -39% and the Z score was 4.62.

Take `CCc1cnc(C)nc1N1CCC2(CCC(=O)N(Cc3ccncc3)C2)CC1`: the “% Inhibition” value is recorded as -6% and the Z score is recorded as 0.73.

On to `Cc1ccc(CN(C)C(=O)C2CCCC2)o1`, for which the “% Inhibition” value is on record as -1% and the Z score was 0.12.

With `CC(=O)N1C[C@H](C)c2scc(C)[n+]2-c2ccccc21`, the “% Inhibition” value is recorded as -28% and the Z score came out at 5.35.

Take `O=C1CN(C(=O)COc2ccccc2)S(=O)(=O)c2ccccc21`: the “% Inhibition” value is reported as -35% and the Z score is listed as 4.1.

For `CC(C)(C)c1nnc2n1CCN(Cc1nccs1)C2`, the “% Inhibition” value is -5% and the Z score was 0.66.

In the case of `CS(=O)(=O)N1C[C@H]2CC[C@@H](C1)N(C(=O)CCc1cccnc1)C2`, the “% Inhibition” value is listed as 1% and the Z score is listed as -0.06.

Turning to `N#CCCN1CCC[C@H](c2ccncc2)C1`, the “% Inhibition” value is given as -15% and the Z score is listed as 2.33.

For the compound `CCNc1ncc(CN2CCC(Cc3n[nH]c(=O)n3CC)CC2)cn1`, the “% Inhibition” value is recorded as -3% and the Z score worked out at 0.71.

In the case of `CC(C)c1nc([C@@H]2CN(C(=O)C3(C(C)C)COC3)CCO2)no1`, the “% Inhibition” value is reported as 2% and the Z score is recorded as -0.23.

As to `COc1ccc(C(=O)N[C@@H](C)C2=CCCCC2)cn1`, the “% Inhibition” value is reported as 3% and the Z score is recorded as -0.64.

Turning to `CN(C[C@H](O)CO)C(=O)Nc1cccc(C(F)(F)F)c1F`, the “% Inhibition” value is reported as -19% and the Z score came out at 2.03.

For `Cc1cnc(N2CCN(C(=O)c3cscn3)[C@@H](C)C2)nc1`, the “% Inhibition” value was determined as 3% and the Z score is on record as -0.57.

In the case of `O=C(O)CCN(C(=O)CCc1ccccc1Cl)C1CCOCC1`, the “% Inhibition” value is -6% and the Z score turned out to be 0.9.

Consider `Cc1nnccc1NC(=O)N[C@H]1CCCc2ccccc2C1`, for which the “% Inhibition” value was -1% and the Z score stood at 0.22.

In the case of `COc1cn(CC(=O)NCc2ccco2)c(CN2CCC(C)CC2)cc1=O`, the “% Inhibition” value is 0% and the Z score was -0.03.

Consider `CCN(C(=O)c1ccnn1C)c1cccnc1C`, for which the “% Inhibition” value is listed as -9% and the Z score came to 1.25.

In the case of `N#Cc1cn(Cc2cc(-c3ccccc3)no2)c(=O)[nH]c1=O`, the “% Inhibition” value was -12% and the Z score amounted to 1.26.

Take `Cc1cc(C(=O)N[C@H](C#N)c2ccc(OCc3ccccc3)cc2)no1`: the “% Inhibition” value was -14% and the Z score was 1.48.

Turning to `Cc1nc(CN(C)C(=O)Cc2coc3c(C)c(C)cc(C)c23)no1`, the “% Inhibition” value is on record as 4% and the Z score is recorded as -0.68.

Take `O=C(c1ccnc(-c2cc(F)cc(C(F)(F)F)c2)c1)N1CCOCC1`: the “% Inhibition” value was -19% and the Z score is listed as 1.67.
